Measured values taken from PubChem BioAssay AID743279 (National Center for Advancing Translational Sciences (NCATS), 2014).
Hit rate of the full screen: of about 360,000 compounds, about 17,000 (4.7%) were called active. Inconclusive results, whose numbers are uncertain, are shown with a selection of clear calls. Rule as the data show it: active = activity change below about -50%; inconclusive = mostly about -30% to -49%; inactive = weaker than that.

Test: qHTS for Inhibitors of Inflammasome Signaling: IL-1-beta AlphaLISA Primary Screen
Settings: THP-1 LPS/ATP IL-1B secretion, 16 h; at 57.5 µM, stronger effect = lower value
In short: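 Secreted IL-1B measured by AlphaLISA bead assay after 16 h compound exposure of THP-1 cells; compounds (final up to 57.5 uM) added 1 h before LPS (250 ng/mL) and ATP (1.25 mM) stimulation; lower signal means less secretion.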
% is scaled to controls: 0 for no effect and ±100 for the full control effect.

Activity change, inconclusive:
COc1ccc(N2CCN(C(=O)CN(C)S(=O)(=O)c3ccc4c(c3)c(=O)n(C)c(=O)n4C)CC2)cc1 -34.7%
CCCCC(=O)NC1=NC(=O)C(C)(C)S1 -41.4%
Nc1[nH]nc2nc(NCc3ccccc3)c3c(c12)CCN(Cc1ccccc1)C3 -49.7%
Cc1c(OCC(F)(F)F)ccnc1CSc1nc2ccccc2[nH]1 -46.2%
O=C(CSc1ccc(-c2ccncc2)nn1)c1ccccc1 -31%
CC(=O)N/C(=C\c1ccc(F)cc1)C(=O)OCc1ccccc1 -40.6%
CCCCOC(=O)/C(=C/C=C/c1ccccc1)NC(=O)c1ccccc1 -32.5%
COc1ccc2cc(C(C)C(=O)N3CCC(C)CC3)ccc2c1 (centres undefined) -46.6%
NC(=O)c1cc2ccncc2c2ccccc12 -36.8%
Cc1nc2sc(C(c3ccc(Cl)cc3)N3CCN(c4ccccc4F)CC3)c(O)n2n1 (centres undefined) -38.7%
CCCc1nc(SCc2ccc(Cl)cc2Cl)n[nH]1 -31.4%
O=C(c1ccc([N+](=O)[O-])cc1)N1C=CC(C(F)(F)F)=NCC1 -37.7%
C=CCc1ccc(OC(=O)NC2CCCCC2)c(OC)c1 -38%
Cc1oc(=O)c(NC(=O)c2cccc(Cl)c2)cc1C(=O)c1ccccc1 -43.1%
O=C(CC(c1ccco1)S(=O)(=O)c1ccccc1)c1ccc(F)cc1 (centres undefined) -47%
CC(C)(C)C(=O)O/N=C1/C(=O)N(c2ccccc2)c2ccccc21 -34.6%
CCOC(=O)CNC(=O)CSc1ccc(-c2nc3ccccc3[nH]2)cn1 -32.7%
CN(C)CCCN(C(=O)c1ccco1)c1nc2cc3c(cc2s1)OCO3 -32%
CN(Cc1cccc(F)c1)C(=O)CN1CCN(S(=O)(=O)c2ccc3c(c2)OCCCO3)CC1 -39%
N#CCCn1cc(/C=C2\NC(=S)N(c3ccccc3)C2=O)c(-c2ccc(F)cc2)n1 -35.7%
Cc1ccc2c(c1)COc1c3ccc(C(=O)N4CCOCC4)cc3nn1-2 -43.9%
Cc1nc(N2CCOCC2)nc(N2CCN(c3ccccc3)CC2)c1[N+](=O)[O-] -36.7%
COC(=O)N/N=C/c1cc(N=Nc2ccccc2Cl)ccc1O -35.2%
COc1ccccc1Oc1nc2c(c(=O)n(Cc3ccccc3F)c(=O)n2C)n1C -41.1%
Cc1ccc(S(=O)(=O)N2CCCc3cc(NC(=O)c4c(F)cccc4F)ccc32)cc1 -33.4%
Cc1cccc(-c2noc(-c3ccccc3C(=O)NCc3ccco3)n2)c1 -49.7%
O=C1C=C(c2cccc(Br)c2)C[C@@H](c2ccc(F)cc2)C1 -42.2%
C=CCNC(=S)N/N=C(\C)c1ccc(-n2ccnc2)cc1 -36.2%
O=C(CN1C2=NCCCN2c2ccccc21)c1ccc2c(c1)OCO2 -48.6%
Cc1nn(-c2ccccc2)c(Cl)c1/C=N/NS(=O)(=O)c1ccc(Br)cc1 -43.6%
CCN(CC)C(=O)C1=C(C)N(Cc2ccc(C(C)(C)C)cc2)C(=O)C(CC(=O)NCc2cccc3ccccc23)C1 (centres undefined) -47.8%
CC1CCCCN1C(=O)CSc1nc2cc3c(cc2c(=O)n1Cc1ccc2c(c1)OCO2)OCO3 (centres undefined) -32.8%
COC(=O)C1=C(C)N(CCC2=CCCCC2)C(=O)C1 -39.3%
C=CCC[C@@H](Cc1ccc(F)cc1)C(=O)OC[C@H](C)NC(=O)[C@@H](CC=C)CC(=O)N(CCO)Cc1ccccc1 -46.6%
NC(c1csc(NC(=O)Nc2ccccc2)n1)C1CCCCC1 (centres undefined) -43.4%
CCSc1nc2c(c(=O)n1Cc1ccccc1)SC(C)C2 (centres undefined) -47%
Cc1ccc(NC(CNS(=O)(=O)c2ccc(Cl)cc2)c2ccccc2)cc1 (centres undefined) -34.6%
Cc1ccc(-n2c(C)cc(C3N=C(N)Nc4nc5ccccc5n43)c2C)c(C)c1 (centres undefined) -44.5%
Cn1c(CN2CCCCC2)nc2cc(NC(=O)c3ccc(Cl)cc3)ccc21 -38.5%
O=C(COn1nnc2ccc(C(F)(F)F)cc21)Nc1c(Cl)cccc1Cl -48.4%
S=C(NNC(=S)Nc1ccccc1)Nc1ccccc1 -34.8%
CC(C)C[C@H](NC(=O)c1nc[nH]c1C(=O)N[C@@H](CC(C)C)C(=O)OC(C)(C)C)C(=O)OC(C)(C)C -48.9%
Cc1[nH]n(-c2ccc([N+](=O)[O-])cc2)c(=O)c1C=NCCN1CCN(C(=O)c2ccc(Br)cc2)CC1 -30.6%
COc1cc(NC(=O)CN(c2ccc(C)cc2)S(=O)(=O)c2c(C)noc2C)cc(OC)c1 -43.1%

Activity change, active:
CCC(C)[C@@H](NC(=O)OC(C)(C)C)c1nnc(S(=O)(=O)Cc2cccc(C)c2)o1 (some centres undefined) -116%
COc1ccc(N(CC(=O)Nc2ccc(F)cc2)S(=O)(=O)c2ccccc2[N+](=O)[O-])c(OC)c1 -59.6%
CN(C)c1ccc(C(C(=O)NCc2ccccc2)N(Cc2ccco2)C(=O)c2snc(C(N)=O)c2N)cc1 (centres undefined) -72%
CN(C)c1ccc(C(O)Cc2nc3ccccc3n2C)cc1 (centres undefined) -54.3%
CC(C)n1c(N2CCN(S(=O)(=O)c3cccc([N+](=O)[O-])c3)CC2)nc2ccccc21 -72.3%
C=CCn1ccc(=NC=C(C#N)C#N)c2ccccc21 -69.3%
Cc1[nH]c2ccccc2c1C(=O)CCl -107%
Cc1nc(Nc2ccc(S(N)(=O)=O)cc2)sc1-c1ccccc1 -80.4%
O=C1/C(=C\c2ccncc2)CCc2ccccc21 -98.3%
Cc1cnc(NC(=O)C2CC(=O)N(c3ccc4c(c3)OCCO4)C2)s1 (centres undefined) -57.2%
O=C(CN1C(=O)S/C(=C\c2ccccc2F)C1=O)NC1C=CS(=O)(=O)C1 (centres undefined) -70%
COc1ccc2nc(N/C(N)=N/C(=S)Nc3c(C)cccc3C)nc(C)c2c1 -62.7%
CCOc1cccc(CN2CCCC(N3CCN(c4cccc(Cl)c4)CC3)C2)c1O (centres undefined) -72%
C#CCN(C[C@@H]1[C@@H](OC(=O)Nc2c(C)noc2C)[C@@H](OC(=O)Nc2c(C)noc2C)Cn2c(=O)n(CCCCCC)c(=O)n21)S(=O)(=O)c1ccc(C)cc1 -59.5%
Cc1cc(C(=O)C[N+]2(C)CCOCC2)c(C)n1-c1ccc(Br)cc1 -69.2%
O=[N+]([O-])c1cnc(Sc2ccncn2)s1 -71.5%
COc1ccc(C(N)c2csc(NC(=O)Nc3cccc(C(F)(F)F)c3)n2)cc1 (centres undefined) -81.4%
COc1ccc(N(C)C(=O)c2cc3c(s2)-c2ccccc2OC3)c(OC)c1 -73%
CCc1ccc2c(c1)C1(C(=O)N2)N2CCCC2C(C(=O)c2ccc3ccccc3c2)C12C(=O)Nc1ccccc12 (centres undefined) -99.3%

Activity change, inactive:
O=C(CSc1nc2ccccc2c(=O)[nH]1)Nc1ccc(S(=O)(=O)N2CCCC2)cc1 38.2%
C[C@@H]1CN([C@H](C)CO)C(=O)CCCn2cc(nn2)CO[C@H]1CN(C)C(=O)Nc1ccc(-c2cccs2)cc1 8.85%
CCn1c(SCC(=O)N2CCN(c3ccc(Cl)cc3)CC2)nc2ccccc2c1=O -7.61%
CN(C)CCN(Cc1ccccc1)C(c1ccnc2ccccc12)c1nnnn1-c1ccc2c(c1)OCCO2 (centres undefined) -4.76%
COc1ccccc1CNC(=O)C1CCC(CNC(=O)[C@@H]2Cc3ccccc3CN2)CC1 (some centres undefined) -17.7%
COc1ccc(N2CCN(c3cc(C)c4ccc(C)cc4n3)CC2)cc1 -11.6%
CC(C)(C)OC(=O)CNC(=O)c1nc[nH]c1C(=O)NCC(=O)OC(C)(C)C 9.53%
COc1ccccc1NS(=O)(=O)c1ccc2c(c1)n(C)c(=O)n2C 17.3%
CCCc1cc(=O)[nH]c(SCC(=O)N2CCCCCC2)n1 44.2%
CCOc1cc(C(=S)N2CCCCC2)ccc1OS(=O)(=O)c1ccc(Cl)cc1 -8.23%
O=C(Nc1ccc(S(=O)(=O)NC2=NCCCCC2)cc1)c1ccc(=O)[nH]c1 32.2%
O=C(Cc1ccc(F)cc1)Nc1ccccc1N1CCCC1 0%
CCNC(=O)NC(=O)COC(=O)c1cccc(S(=O)(=O)N2CC3(C)CC2CC(C)(C)C3)c1 (centres undefined) 7.22%
CC(=O)N1CCN(C(=O)c2ccccc2NS(=O)(=O)c2ccc(F)cc2)CC1 21.5%
O=S(=O)(c1ccc(S(=O)(=O)N2CCN(C/C=C/c3ccccc3)CC2)cc1)N1CCCC1 12.5%
Cc1cc(-c2nc(C)c(-c3nnc(SCC(=O)Nc4cc(Cl)cc(Cl)c4)n3C)s2)no1 -3.61%
COC(=O)Cc1ccc(NC(=S)NCc2ccc(S(N)(=O)=O)cc2)cc1 45.4%
CCOC(=O)Cc1csc(NC(=O)c2ccc(Cl)s2)n1 53.4%
CN(CC(=O)NCc1cccc(F)c1)C(=O)c1ccco1 11.3%
CCCc1ccc2oc(C(=O)N3CCCC3)c(C)c2c1 -20.1%
CCn1nc(C)c(CN2CCC(n3nccc3NC(=O)c3ccccc3OC)CC2)c1C 12.4%
